Assay results taken from publication PMC7782513.
Results are given in words; binding and its absence hold for the method and conditions named. For some assays here: In cells and extracts the contact can be indirect. Some binding calls cover weakened binding; strength is not graded here.

Protein sequences, listed by entry. Tags and fused reporters are not part of them. Lines headed by an entry give the natural chain unless they say otherwise; changes in a name come on top. Chains listed by the source or under a name are the forms on record and can include a tag or linker.
UniProt P48431: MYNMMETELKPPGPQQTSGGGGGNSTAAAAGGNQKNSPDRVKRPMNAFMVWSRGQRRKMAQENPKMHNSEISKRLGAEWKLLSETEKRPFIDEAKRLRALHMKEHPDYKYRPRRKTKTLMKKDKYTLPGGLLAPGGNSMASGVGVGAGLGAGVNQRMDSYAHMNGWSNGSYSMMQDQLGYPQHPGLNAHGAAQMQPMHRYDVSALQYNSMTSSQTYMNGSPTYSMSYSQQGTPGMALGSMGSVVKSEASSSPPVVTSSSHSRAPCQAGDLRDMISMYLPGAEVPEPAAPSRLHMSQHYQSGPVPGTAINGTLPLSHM
His-tagged SOX2 K42A, R43A, K115A triple mutant (SOX2x3Mut) (P48431, form named): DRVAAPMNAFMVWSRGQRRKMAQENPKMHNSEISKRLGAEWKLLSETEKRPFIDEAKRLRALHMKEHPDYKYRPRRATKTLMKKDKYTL
UniProt O00629: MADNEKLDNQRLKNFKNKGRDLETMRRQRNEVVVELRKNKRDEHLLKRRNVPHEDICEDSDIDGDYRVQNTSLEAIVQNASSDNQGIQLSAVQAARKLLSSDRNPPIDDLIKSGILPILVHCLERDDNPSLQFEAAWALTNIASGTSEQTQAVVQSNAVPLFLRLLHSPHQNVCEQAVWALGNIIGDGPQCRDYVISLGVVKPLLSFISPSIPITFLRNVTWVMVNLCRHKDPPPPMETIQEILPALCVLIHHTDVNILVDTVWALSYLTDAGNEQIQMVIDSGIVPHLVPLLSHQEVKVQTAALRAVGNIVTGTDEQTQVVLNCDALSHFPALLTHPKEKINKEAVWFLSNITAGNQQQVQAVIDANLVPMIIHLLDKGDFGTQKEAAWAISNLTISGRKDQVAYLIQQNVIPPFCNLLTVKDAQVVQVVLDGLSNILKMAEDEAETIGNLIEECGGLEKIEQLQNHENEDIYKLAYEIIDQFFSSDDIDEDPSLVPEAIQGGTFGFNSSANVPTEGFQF

How the values were obtained:
[1] = target: HA-tagged full length SOX2 (human) (UniProt P48431); experiment: co-IP; HEK293T cells co-transfected with Flag-tagged importin and HA-tagged SOX2; anti-HA agarose, NP-40 lysis buffer (280 mM NaCl), ten washes, eluted with HA peptide; blots for HA and Flag
[2] = target: HA-tagged full length SOX2x3Mut (K42A, R43A, K115A) (human) (UniProt P48431); experiment: as above
[3] = target: His-tagged SOX2 K42A, R43A, K115A triple mutant (SOX2x3Mut) (human) (UniProt P48431); experiment: MST; labelled SOX2 at 50 nM (his-tag labelling kit RED-tris-NTA), unlabelled importins titrated; 20 mM HEPES, 150 mM NaCl, pH 8.0; 25 °C; single binding model; both purified
[4] = target: His-tagged SOX2 K42A, R43A, K115A triple mutant (SOX2x3Mut) (human) (UniProt P48431); experiment: pull-down; 10 µM His-tagged SOX2 or mutant immobilised on Ni-NTA resin, 20 µM IMPα in 300 µL; washed three times with 50 mM phosphate pH 8.0, 300 mM NaCl, 20 mM imidazole; eluted through TEV cleavage; SDS-PAGE; both purified

Substance | binding [1] | binding [2] | binding [3] | binding [4]
Flag-tagged IMPα3 (from UniProt O00629 1-521) | binds | no binding | – | –
Flag-tagged IMPα7 (from UniProt O60684 1-536) | no binding | – | – | –
IMPα3 lacking the IMPβ-binding domain (residues 64-521) (from UniProt O00629 64-521) (domain or fragment) | – | – | no binding | no binding (tested: 20 µM of IMPα)
